The values that follow come from publication PMC9911399, “Two distinct binding modes provide the RNA-binding protein RbFox with extraordinary sequence specificity”.

Substitutions are numbered along the chain they refer to; changes in the protein carry UniProt numbers. The list shows a part of the results.

Sequences and labels used below:
B1: AUGAGAU (DNA:RNA)
RNA: GGGAGACCGGAAUUCAGAUUGUCCAUGAGAUUUAAAUCCCGUCGUAGCCACCA
DNA 1: CAATCTGAATTCCGGTCTCCC
DNA 2: TGGTGGCTACGACGGGATT
B2: CCUCAUU (DNA:RNA)
RNA: B1 RNA with A25C, U26C, G27U, A28C, G29A, A30U
DNA 1: CAATCTGAATTCCGGTCTCCC
DNA 2: TGGTGGCTACGACGGGATT
B3: ACUUGCA (DNA:RNA)
RNA: B1 RNA with U26C, G27U, A28U, A30C, U31A
DNA 1: CAATCTGAATTCCGGTCTCCC
DNA 2: TGGTGGCTACGACGGGATT
B4: GUAAGAG (DNA:RNA)
RNA: B1 RNA with A25G, G27A, U31G
DNA 1: CAATCTGAATTCCGGTCTCCC
DNA 2: TGGTGGCTACGACGGGATT
B5: UUGAGCC (DNA:RNA)
RNA: B1 RNA with A25U, A30C, U31C
DNA 1: CAATCTGAATTCCGGTCTCCC
DNA 2: TGGTGGCTACGACGGGATT
B6: GCUCCUC (DNA:RNA)
RNA: GGGAGACCGGAAUUCAGAUUGUCCGCUCCUCUUAAAUCCCGUCGUAGCCACCA
DNA 1: CAATCTGAATTCCGGTCTCCC
DNA 2: TGGTGGCTACGACGGGATT
B7: CUUAACG (DNA:RNA)
RNA: B1 RNA with A25C, G27U, G29A, A30C, U31G
DNA 1: CAATCTGAATTCCGGTCTCCC
DNA 2: TGGTGGCTACGACGGGATT
B8: GUUACAU (DNA:RNA)
RNA: B1 RNA with A25G, G27U, G29C
DNA 1: CAATCTGAATTCCGGTCTCCC
DNA 2: TGGTGGCTACGACGGGATT
B9: GGCUGGA (DNA:RNA)
RNA: B1 RNA with A25G, U26G, G27C, A28U, A30G, U31A
DNA 1: CAATCTGAATTCCGGTCTCCC
DNA 2: TGGTGGCTACGACGGGATT

This experiment addresses T1, RBFOX1 RRM RbFoxmut (Fox-RRM*) (Homo sapiens, UniProt Q9NWB1 109-208, R118D;E147R;N151S;E152T).
T1 sequence: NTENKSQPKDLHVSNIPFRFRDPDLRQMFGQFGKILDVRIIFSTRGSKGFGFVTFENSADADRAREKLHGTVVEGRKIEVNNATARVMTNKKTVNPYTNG
Briefly: EMSA; HiTS-Eq, 1 nM pool, 10 min; buffer printed only for the single-RNA assays: 10 mM Tris pH 7.5, 150 mM NaCl, 3.4 mM EDTA, 0.001% NP-40, 30 C. The settings on record: tags: His6 N-terminal (pET28a); label: 5' 32P. The gist of the method: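 These values rest on relative association constants, computed from read-count changes of each RNA species versus the control reaction and normalised to the cognate motif. Reads came from free RNA recovered by 8% native PAGE after purified RbFox RRM (wild type or mutant) at increasing concentrations was equilibrated for 10 min in 50 µL with 1 nM of a 5′-radiolabelled pool with 7 randomized nucleotides and DNA-annealed flanks.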
A general note: In EMSA bound probe runs differently from free probe, usually more slowly.
Take B1: the binding signal was 0.0957 KA relative to UGCAUGU.

B2: the binding signal is 0.0805 KA relative to UGCAUGU. For the molecule B3, the binding signal is 0.224 KA relative to UGCAUGU.

Regarding B4, the binding signal is 0.0889 KA relative to UGCAUGU.

B5: the binding signal was 0.218 KA relative to UGCAUGU. Turning to B6, the binding signal is 0.0556 KA relative to UGCAUGU. As for B7, the figure is 0.129 KA relative to UGCAUGU.

In the case of B8, the binding signal is 0.11 KA relative to UGCAUGU. The result for B9 reads 0.0732 KA relative to UGCAUGU.
